From PubChem BioAssay AID686978 (National Center for Advancing Translational Sciences (NCATS), 2013)
Out of some 420,000 compounds screened, about 64,000 (15%) were called active. Inconclusive results, whose numbers are uncertain, are shown with a selection of clear calls. Calls follow the shape of the dose curve; as a rule, active = well fitted inhibition curve with a large enough effect; inconclusive = small, poorly fitted or top-dose-only effect; inactive = flat fitted curve, though single readings scatter. Potencies of inconclusive entries are left out as doubtful fits.

experiment: qHTS for Inhibitors of human tyrosyl-DNA phosphodiesterase 1 (TDP1): qHTS in cells in absence of CPT; settings: DT40 Tdp1-/- hTDP1 cells, no CPT, ATP luminescence, 48 h; activity change, negative = growth inhibition: at 46.2 µM (top of the series) unless noted; also: nearly all actives have a fitted effect of over 55% in size
Method in brief: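 Seeded 400 DT40-hTDP1 cells/well (vehicle DMSO, no 20 nM CPT); pinned compounds; ≥48 hr at 37 °C; CellTiter-Glo luminescence as viability measure.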
% is scaled to controls: 0 for no effect and ±100 for the full control effect; potency is read from the fitted curve at half-maximal effect; tags tell the direction and shape of the fitted curve.

| SMILES | Potency | activity change, negative = growth inhibition |
| --- | --- | --- |
| COc1ccc(C(NC(=O)C2CCN(CCOc3ccc(Cl)cc3Cl)CC2)c2ccccn2)cc1 (stereo unspecified) | active: 23.1 µM | – |
| OCCSc1nncn1/N=C/c1c[nH]c2ccccc12 | – | inactive: -3.01% |
| COCCNc1nc(N)c([N+](=O)[O-])c(N2CCCCCC2)n1 | – | inactive: -19.5% |
| Cc1ccc(NC(=O)CSCc2cc(=O)c3ccccc3[nH]2)c(C)c1 | inconclusive [inhibitor, single point] | – |
| COC(=O)Cc1c(CSc2ccccc2)oc2ccc(O)c(CN(C)C)c12 | inconclusive [inhibitor, partial curve] | – |
| CC1Cc2ccccc2N1C(=O)COC(=O)c1ccc(N(C)C)cc1 (stereo unspecified) | inconclusive [inhibitor, single point] | – |
| O=C(NCc1ccc2c(c1)OCO2)c1ccc(S(=O)(=O)NCC2CCCO2)cc1 (stereo unspecified) | inconclusive [inhibitor, partial curve] | – |
| CCOc1ccc(CNC(=O)c2cc3c(=O)oc4ccc(C)cc4c3s2)cc1 | inconclusive [inhibitor, single point] | – |
| COc1ccccc1C1=CC(=O)C[C@H](c2ccc(F)cc2)C1 | inconclusive [inhibitor, single point] | – |
| CCc1ccc(NC(=O)C2CCCN2c2nn3c(=O)cc(C)nc3s2)cc1 (stereo unspecified) | inconclusive [inhibitor, single point] | – |
| Cc1ccc(C(=O)N(CN2CCCC2=O)c2ccccc2)cc1C | inconclusive [inhibitor, single point] | – |
| Cn1c(SCCCC(=O)c2ccc(F)cc2)nnc1-c1ccncc1 | inconclusive [inhibitor, single point] | – |
| COc1ccc(-c2cn3c(n2)sc2cc(C(=O)NCCCN4CCN(C)CC4)ccc23)cc1 | active: 1.3 µM | – |
| CCOC(=O)C1=NS(=O)(=O)NC(C)=C1 | – | inactive: -9% |
| Cn1c(=O)c2c(SCc3cccnc3)nc(CC(C)(C)C)nc2n(C)c1=O | active: 18.4 µM | – |
| CCC(CC)C(=O)N(C)c1c(C)nc2c(OCc3cc(Cl)cc(Cl)c3)cccn12 | inconclusive [inhibitor, single point] | – |
| O=C(COC(=O)c1n[nH]c2ccccc12)Nc1ccc(Cl)cc1[N+](=O)[O-] | inconclusive [inhibitor, single point] | – |
| Fc1ccc(-n2cc(CNCCc3ccccn3)c(-c3ccccc3Cl)n2)cc1 | active: 7.31 µM | – |
| Cc1ccc(S(=O)(=O)N2CCOc3ccccc32)c(C)c1NS(C)(=O)=O | inconclusive [inhibitor, single point] | – |
| Cc1ccc(-n2c(=O)c3c(C)c(C(=O)N(C)C)sc3n(Cc3ccccc3C)c2=O)cc1C | inconclusive [inhibitor, partial curve] | – |
| COc1ccc(-c2cc(C(=O)NCCN3CCOCC3)c3ccccc3n2)cc1 | inconclusive [inhibitor, single point] | – |
| COc1ccc(Cn2c(CO)cnc2SCc2ccccc2)cc1 | inconclusive [inhibitor, single point] | – |
| CCCOc1ccc(C2C(=O)N(C3CCCCC3)CC(=O)N2C2CCCCC2)cc1OC (stereo unspecified) | inconclusive [inhibitor, partial curve] | – |
| O=C(Nc1cccc(S(=O)(=O)N2CCCCCC2)c1)C1CCN(C(=O)c2ccc(F)cc2)CC1 | inconclusive [inhibitor, single point] | – |

| SMILES | Potency | activity change, negative = growth inhibition |
| --- | --- | --- |
| O=C(COCc1cc(-c2ccc(F)cc2)on1)Nc1cccc(C(F)(F)F)c1 | inconclusive [inhibitor, single point] | – |
| CC(C)Cn1c(O)c(N=NC(=O)c2cccc(S(=O)(=O)N3CCCCC3)c2)c2ccccc21 | active: 13 µM | – |
| OC[C@H]1O[C@@H](c2nc3ccc(-c4nc(-c5cccs5)no4)cc3[nH]2)C[C@@H]1O | inconclusive [inhibitor, single point] | – |
| CC1CCCN(c2ccc(C(=O)Nc3cccnc3)cc2[N+](=O)[O-])C1 (stereo unspecified) | inconclusive [inhibitor, single point] | – |
| Cc1cccn2c(CNCC(C)Oc3cccnc3)c(C(=O)N3CCOCC3)nc12 (stereo unspecified) | – | inactive: 30% |
| CCCCCCCc1c(C)nc(N2CCOCC2)[nH]c1=O | – | inconclusive: -30.1% [inhibitor] |
| O=C(CSC1=NCCN1)Nc1ccccc1[N+](=O)[O-] | active: 20.6 µM | – |
| COCCCNC(=S)N1CCN(c2nc(-c3cccc(OC)c3)cs2)CC1 | inconclusive [inhibitor, single point] | – |
| COC(=O)c1cc(OC)c(OCc2cc(C(=O)OC)oc2C)c(OC)c1 | inconclusive [inhibitor, single point] | – |
| CC1CCCCN1C(=O)c1ccc(OC2CCN(S(=O)(=O)N(C)C)CC2)cc1 (stereo unspecified) | active: 10.3 µM | – |
| CCC(=O)Nc1ccc(N2CCN(C(=O)c3ccco3)CC2)c(Cl)c1 | inconclusive [inhibitor, single point] | – |
| Cc1ccccc1NC(=O)CSc1ccc(-c2cccnc2)nn1 | inconclusive [inhibitor, single point] | – |
| COc1ccccc1NC(=O)C(=O)NCc1ccncc1 | – | inactive: 2.12% |
| Cc1[nH]n(-c2ccccc2)c(=O)c1/C=N/c1nn[nH]n1 | inconclusive [inhibitor, single point] | – |
| CN(C)c1ccc(C(=O)N=c2sccn2C)cc1[N+](=O)[O-] | – | inactive: 4.26% |
| O=C(CCS(=O)(=O)c1ccccc1)Nc1nc2cc3c(cc2s1)OCO3 | inconclusive [inhibitor, single point] | – |
| Nc1ccc(-n2cc(-c3ccccc3)[nH]c2=S)cc1 | – | inactive: 0.733% |
| O=C(COC(=O)c1c2c(nc3ccccc13)/C(=C\c1cccs1)CCC2)Nc1ccccc1 | active: 9.2 µM | – |
| COc1ccc(CNC(=O)C2CCC(CNc3c(N4CCC(C)CC4)c(=O)c3=O)CC2)cc1 (stereo unspecified) | – | inactive: 16.8% |
| O=C(CN1C(=O)C2CCCCC2C1=O)Nc1nc2ccc(F)cc2s1 (stereo unspecified) | – | inactive: -12.6% |
| CCOc1ccccc1C=NN=Cc1ccccc1O | – | inactive: -23.8% |
| Cc1ccccc1NC(=O)CSc1ccc(-c2ccccn2)nn1 | inconclusive [inhibitor, single point] | – |
| COc1ccccc1-c1nn(CCC(=O)Nc2ccc(C)cc2)c2nc(C)cc(C)c12 | active: 13 µM | – |
| CC(Oc1ccc(Cl)cc1)C(=O)Nc1ncccn1 (stereo unspecified) | – | inactive: -16.2% |

| SMILES | Potency | activity change, negative = growth inhibition |
| --- | --- | --- |
| CCOC(=O)C1(C)CCCN(C(=O)Cc2ccc3ccccc3c2)C1 (stereo unspecified) | active: 9.2 µM | – |
| O=C(CCn1c(SCC(=O)NCc2ccco2)nc2ccccc2c1=O)NCCc1ccccc1 | inconclusive [inhibitor, single point] | – |
| Cn1c(=O)c2cc(S(=O)(=O)NCCC(=O)N3CC=C(c4ccccc4)CC3)ccc2n(C)c1=O | inconclusive [inhibitor, single point] | – |
| CC(=O)N1N=C(c2cccc([N+](=O)[O-])c2)OC1c1cccc(Br)c1 (stereo unspecified) | inconclusive [inhibitor, single point] | – |
| CCCCCn1c(CCCNC(=O)c2ccccc2OC)nc2ccccc21 | active: 18.4 µM | – |
| COc1cc(/C=C(/C#N)c2nc3ccccc3[nH]2)ccc1OCC(=O)Nc1ccccc1C(C)C | active: 5.8 µM | – |
| O[C@@H]1C[C@H](c2ccc(Cl)cc2)N(Cc2cccs2)C[C@H]1n1cc(-c2ccc(F)cc2)nn1 | inconclusive [inhibitor, single point] | – |
| O=C(NCc1ccccc1Cl)C1=Cc2cc(Br)ccc2OC1 | inconclusive [inhibitor, single point] | – |
| CC(C)CCN=CC1=C(O)CC(c2ccccc2)CC1=O (stereo unspecified) | – | inactive: 1.59% |
| O=C(O)C1OC(Oc2c(-c3ccc(O)c(O)c3)oc3cc(O)cc(O)c3c2=O)C(O)C(O)C1O (stereo unspecified) | active: 13 µM | – |
| CCc1nc(NCc2ccco2)c2oc3ccccc3c2n1 | inconclusive [inhibitor, single point] | – |
| COc1ccc(-c2nn(-c3ccccc3)cc2/C=N/NS(=O)(=O)c2ccccc2)cc1 | inconclusive [inhibitor, single point] | – |
| COc1cc(Cl)c(C)cc1NC(=O)CSc1cc(Cl)ccc1Cl | active: 23.1 µM | – |
| C/C(=N\NC(=O)c1ccc(Cl)cc1)c1ccc(N2CCOCC2)cc1 | – | inactive: -29.2% |
| CCc1ccc(/C=C2\SC(=S)N(CCCC(=O)Nc3ccccn3)C2=O)cc1 | inconclusive [inhibitor, partial curve, poor fit] | – |
| CN(C)c1ccc(C(=O)OCC(=O)NCCNC(=O)COC(=O)c2ccc(N(C)C)cc2)cc1 | – | inconclusive: -32.8% [inhibitor] |
| Cc1ccc(NC(=O)CSc2nnc(-c3ccc(S(=O)(=O)N4CCOCC4)cc3)n2C)cc1 | – | inactive: -10.3% |
| CCOC(=O)c1c(C)[nH]c(C(=O)CSc2ccccc2)c1C | inconclusive [inhibitor, partial curve] | – |
| O=C(NCC(c1ccc2c(c1)OCO2)N1CCN(c2ccccc2)CC1)C(=O)Nc1ccccc1F (stereo unspecified) | inconclusive [inhibitor, single point] | – |
| CCOC(=O)NNC(=O)C1CCC(C)CC1 (stereo unspecified) | – | inconclusive: -35.3% [inhibitor] |
| CCOC(=O)C1=C(COC(=O)c2ncc(Cl)c(Cl)c2Cl)NC(=O)NC1C (stereo unspecified) | – | inactive: 15.5% |
| CCOC1=C2CN(S(=O)(=O)c3ccc(C)cc3)[C@@H](c3ccccc3)C[C@H]2[C@H]2C(=O)N(c3ccccc3)C(=O)[C@H]2C1 | – | inactive: 13% |
| CCOC(=O)CCCCCCCCCCCCC1C=CCC1 (stereo unspecified) | – | inactive: 11.7% |
